Values quoted from earlier work, collected in patent publication US20160263081A1, “ANTIPARASITIC AGENT” (NAI INC., priority 2013, published 2016).
Where two headings read alike, the source gives them in different places.

Experiments:
[1] = test system: T. brucei gambiense bloodstream form; conditions: cited from earlier work
[2] = test system: T. brucei rhodensiense bloodstream form; conditions: cited from earlier work
[3] = T. brucei gambiense bloodstream form
[4] = T. brucei rhodensiense bloodstream form

Cc1ccc(C(=O)Nc2ccc(S(=O)(=O)O)c3cc(S(=O)(=O)O)cc(S(=O)(=O)O)c23)cc1NC(=O)c1cccc(NC(=O)Nc2cccc(C(=O)Nc3cc(C(=O)Nc4ccc(S(=O)(=O)O)c5cc(S(=O)(=O)O)cc(S(=O)(=O)O)c45)ccc3C)c2)c1 [Suramin]
IC50 [1]: 349 nM
IC50 [2]: 15 nM

Nc1nc(N)nc(Nc2ccc([As]3SCC(CO)S3)cc2)n1 (stereo not drawn) [melarsoprol]
IC50 [1, 3]: 4 nM
IC50 [2, 4]: 7 nM

N=C(N)c1ccc(OCCCCCOc2ccc(C(=N)N)cc2)cc1 [pentamidine]
IC50 [1, 3]: 0.9 nM
IC50 [2, 4]: 0.6 nM
